Data as given in the supplement of paper PMC8728848.
This is one part of the list.

Assays:
Test in all cases: glycan array binding signal (z-score within array); higher = stronger binding
Conditions in all cases: glycan notation: IUPAC condensed, linker removed
[1] = target: Neu5Ac(a2-3)Gal(b1-3)GlcNAc(b1-3)Gal(b1-4)GlcNAc
In short: (§1)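 The Consortium for Functional Glycomics database supplied 3228 glycan arrays, of which those lacking an available protein sequence were dropped. The binding signal, a within-array Z-score, was averaged across arrays of the same protein sequence and across linkers. Negative scores can be read as non-binding.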

[2] = target: Neu5Ac(a2-3)Gal(b1-3)GlcNAc(b1-3)GalNAc
In short: as §1

[3] = target: Neu5Ac(a2-3)Gal(b1-3)GlcNAc(b1-4)Gal(b1-4)Glc
In short: as §1

[4] = target: Neu5Ac(a2-3)Gal(b1-3)GlcNAc(b1-6)GalNAc
In short: as §1

[5] = target: Neu5Ac(a2-3)Gal(b1-3)GlcNAc6S
In short: as §1

[6] = target: Neu5Ac(a2-3)Gal(b1-3)[Fuc(a1-4)]GlcNAc
In short: as §1

[7] = target: Neu5Ac(a2-3)Gal(b1-3)[Fuc(a1-4)]GlcNAc(b1-3)Gal(b1-3)[Fuc(a1-4)]GlcNAc
In short: as §1

[8] = target: Neu5Ac(a2-3)Gal(b1-3)[Fuc(a1-4)]GlcNAc(b1-3)Gal(b1-4)[Fuc(a1-3)]GlcNAc
In short: as §1

[9] = target: Neu5Ac(a2-3)Gal(b1-3)[GlcNAc(b1-6)]GalNAc
In short: as §1

[10] = target: Neu5Ac(a2-3)Gal(b1-3)[Neu5Ac(a2-3)Gal(b1-4)]GlcNAc
In short: as §1

[11] = target: Neu5Ac(a2-3)Gal(b1-3)[Neu5Ac(a2-6)]GalNAc
In short: as §1

[12] = target: Neu5Ac(a2-3)Gal(b1-3)[Neu5Ac(a2-6)]GlcNAc(b1-3)[Fuc(a1-3)[Gal(b1-4)]GlcNAc(b1-6)]Gal(b1-4)Glc
In short: as §1

[13] = target: Neu5Ac(a2-3)Gal(b1-3)]Neu5Ac(a2-3)Gal(b1-4)]GlcNAc
In short: as §1

Neu5Ac(a2-3)Gal(b1-4)Glc = target: Neu5Ac(a2-3)Gal(b1-4)Glc
In short: as §1

[14] = target: Neu5Ac(a2-3)Gal(b1-4)GlcNAc
In short: as §1

[15] = target: Neu5Ac(a2-3)Gal(b1-4)GlcNAc(b1-2)Man
In short: as §1

[16] = target: Neu5Ac(a2-3)Gal(b1-4)GlcNAc(b1-2)Man(a1-3)[GlcNAc(b1-4)][Neu5Ac(a2-3)Gal(b1-4)GlcNAc(b1-2)Man(a1-6)]Man(b1-4)GlcNAc(b1-4)GlcNAc
In short: as §1

[17] = target: Neu5Ac(a2-3)Gal(b1-4)GlcNAc(b1-2)Man(a1-3)[Neu5Ac(a2-3)Gal(b1-4)GlcNAc(b1-2)Man(a1-6)]Man(b1-4)GlcNAc(b1-4)GlcNAc
In short: as §1

[18] = target: Neu5Ac(a2-3)Gal(b1-4)GlcNAc(b1-2)Man(a1-3)[Neu5Ac(a2-3)Gal(b1-4)GlcNAc(b1-2)Man(a1-6)]Man(b1-4)GlcNAc(b1-4)[Fuc(a1-6)]GlcNAc
In short: as §1

[19] = target: Neu5Ac(a2-3)Gal(b1-4)GlcNAc(b1-2)Man(a1-3)[Neu5Ac(a2-6)Gal(b1-4)GlcNAc(b1-2)Man(a1-6)]Man(b1-4)GlcNAc(b1-4)GlcNAc
In short: as §1

[20] = target: Neu5Ac(a2-3)Gal(b1-4)GlcNAc(b1-2)[Neu5Ac(a2-3)Gal(b1-4)GlcNAc(b1-4)]Man(a1-3)[GlcNAc(b1-4)][Neu5Ac(a2-3)Gal(b1-4)GlcNAc(b1-2)[Neu5Ac(a2-3)Gal(b1-4)GlcNAc(b1-6)]Man(a1-6)]Man(b1-4)GlcNAc(b1-4)GlcNAc
In short: as §1

[21] = target: Neu5Ac(a2-3)Gal(b1-4)GlcNAc(b1-2)[Neu5Ac(a2-3)Gal(b1-4)GlcNAc(b1-4)]Man(a1-3)[GlcNAc(b1-4)][Neu5Ac(a2-3)Gal(b1-4)GlcNAc(b1-4)Man(a1-6)]Man(b1-4)GlcNAc(b1-4)GlcNAc
In short: as §1

[22] = target: Neu5Ac(a2-3)Gal(b1-4)GlcNAc(b1-2)[Neu5Ac(a2-3)Gal(b1-4)GlcNAc(b1-6)]Man(a1-6)[Neu5Ac(a2-3)Gal(b1-4)GlcNAc(b1-2)Man(a1-3)]Man(b1-4)GlcNAc(b1-4)GlcNAc
In short: as §1

[23] = target: Neu5Ac(a2-3)Gal(b1-4)GlcNAc(b1-2)[Neu5Ac(a2-3)Gal(b1-4)GlcNAc(b1-6)]Man(a1-6)[Neu5Ac(a2-3)Gal(b1-4)GlcNAc(b1-2)Man(a1-3)][GlcNAc(b1-4)]Man(b1-4)GlcNAc(b1-4)GlcNAc
In short: as §1

[24] = target: Neu5Ac(a2-3)Gal(b1-4)GlcNAc(b1-3)Gal
In short: as §1

[25] = target: Neu5Ac(a2-3)Gal(b1-4)GlcNAc(b1-3)Gal(b1-3)GlcNAc
In short: as §1

[26] = target: Neu5Ac(a2-3)Gal(b1-4)GlcNAc(b1-3)Gal(b1-4)GlcNAc
In short: as §1

[27] = target: Neu5Ac(a2-3)Gal(b1-4)GlcNAc(b1-3)Gal(b1-4)GlcNAc(b1-2)Man(a1-3)[Neu5Ac(a2-3)Gal(b1-4)GlcNAc(b1-3)Gal(b1-4)GlcNAc(b1-2)Man(a1-6)]Man(b1-4)GlcNAc(b1-4)GlcNAc
In short: as §1

[28] = target: Neu5Ac(a2-3)Gal(b1-4)GlcNAc(b1-3)Gal(b1-4)GlcNAc(b1-3)Gal(b1-4)GlcNAc
In short: as §1

[29] = target: Neu5Ac(a2-3)Gal(b1-4)GlcNAc(b1-3)Gal(b1-4)GlcNAc(b1-3)Gal(b1-4)GlcNAc(b1-2)Man(a1-3)[Neu5Ac(a2-3)Gal(b1-4)GlcNAc(b1-3)Gal(b1-4)GlcNAc(b1-3)Gal(b1-4)GlcNAc(b1-2)Man(a1-6)]GalNAc
In short: as §1

[30] = target: Neu5Ac(a2-3)Gal(b1-4)GlcNAc(b1-3)Gal(b1-4)GlcNAc(b1-3)GalNAc
In short: as §1

[31] = target: Neu5Ac(a2-3)Gal(b1-4)GlcNAc(b1-3)Gal(b1-4)GlcNAc(b1-3)[Neu5Ac(a2-3)Gal(b1-4)GlcNAc(b1-3)Gal(b1-4)GlcNAc(b1-6)]GalNAc
In short: as §1

[32] = target: Neu5Ac(a2-3)Gal(b1-4)GlcNAc(b1-3)Gal(b1-4)GlcNAc(b1-6)[Gal(b1-3)]GalNAc
In short: as §1

[33] = target: Neu5Ac(a2-3)Gal(b1-4)GlcNAc(b1-3)Gal(b1-4)[Fuc(a1-3)]GlcNAc
In short: as §1

[34] = target: Neu5Ac(a2-3)Gal(b1-4)GlcNAc(b1-3)GalNAc
In short: as §1

[35] = target: Neu5Ac(a2-3)Gal(b1-4)GlcNAc(b1-3)[Neu5Ac(a2-3)Gal(b1-4)GlcNAc(b1-6)]GalNAc
In short: as §1

[36] = target: Neu5Ac(a2-3)Gal(b1-4)GlcNAc(b1-6)GalNAc
In short: as §1

[37] = target: Neu5Ac(a2-3)Gal(b1-4)GlcNAc(b1-6)[Gal(b1-3)]GalNAc
In short: as §1

B1: CSA (Cytisus scoparius), P29257 (protein)
chain: SEELSFSFTKFKTDQKNLILQRDALITPTGKLQLTTVENGKPAAYSLGRALYSTPIHIWDKSTGDEASFATFFSFVISDAPNPSTAATDGLAFFLAPADTQPQSAGGYLGLFEKDSSYNSSNQIVAVEFDTYYNSAWDPQTNPHIGIDVNTIKSKKVSSWGFKNGNVATVLITYQPSSKSLVASLVYPSGQTSDKTSYIISANVDLKATVPEWVRIGFSATTGQTDNYIETHDILSWSFKSKLPATKN
glycan array binding signal (z-score) [1]: -0.123 | glycan array binding signal (z-score) [2]: -0.18 | glycan array binding signal (z-score) [3]: -0.204 | glycan array binding signal (z-score) [4]: -0.235 | glycan array binding signal (z-score) [5]: -0.075 | glycan array binding signal (z-score) [6]: -0.194 | glycan array binding signal (z-score) [7]: -0.157 | glycan array binding signal (z-score) [8]: -0.155 | glycan array binding signal (z-score) [9]: -0.238 | glycan array binding signal (z-score) [10]: -0.17 | glycan array binding signal (z-score) [11]: -0.159 | glycan array binding signal (z-score) [12]: -0.146 | glycan array binding signal (z-score) [13]: -0.14 | glycan array binding signal (z-score) (Neu5Ac(a2-3)Gal(b1-4)Glc): -0.15 | glycan array binding signal (z-score) [14]: -0.215 | glycan array binding signal (z-score) [15]: -0.182 | glycan array binding signal (z-score) [16]: -0.209 | glycan array binding signal (z-score) [17]: -0.19 | glycan array binding signal (z-score) [18]: -0.191 | glycan array binding signal (z-score) [19]: -0.21 | glycan array binding signal (z-score) [20]: -0.214 | glycan array binding signal (z-score) [21]: -0.192 | glycan array binding signal (z-score) [22]: -0.185 | glycan array binding signal (z-score) [23]: -0.211 | glycan array binding signal (z-score) [24]: -0.223 | glycan array binding signal (z-score) [25]: -0.212 | glycan array binding signal (z-score) [26]: -0.17 | glycan array binding signal (z-score) [27]: 0.24 | glycan array binding signal (z-score) [28]: -0.227 | glycan array binding signal (z-score) [29]: 0.713 | glycan array binding signal (z-score) [30]: -0.216 | glycan array binding signal (z-score) [31]: -0.182 | glycan array binding signal (z-score) [32]: -0.051 | glycan array binding signal (z-score) [33]: -0.231 | glycan array binding signal (z-score) [34]: -0.206 | glycan array binding signal (z-score) [35]: -0.079 | glycan array binding signal (z-score) [36]: -0.181 | glycan array binding signal (z-score) [37]: -0.131
